# Experimental data taken from the supplement of paper PMC8728848.
# The other results are listed elsewhere or left out.
# B1: RBMC1 (Vibrio cholerae) (protein)
# chain: QQSQRVVTADNLMYLRSGFAIDAIGTTVNNLVGGPVQGTNGGVLRAPIALDQLQSVEVTSGLYNWGGYHIVAIKFTMKDGSSVLLGSTHYASNKKVETYTVPQGKRIKQINVWTGGWLVEGFQFVY
# How the values were obtained:
# Test in all cases: glycan array binding signal (z-score within array); higher = stronger binding
# Details in all cases: glycan notation: IUPAC condensed, linker removed
# [1] = target: Gal3S(b1-4)Glc
# How it was run: (§1)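 From the Consortium for Functional Glycomics database, 3228 arrays were curated, keeping only those whose protein sequence was available. Binding is given as a within-array Z-score averaged across arrays sharing a protein sequence and across linkers. Negative Z-scores can be read as non-binding.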
# [2] = target: Gal3S(b1-4)Glc6S
# How it was run: as §1
# [3] = target: Gal3S(b1-4)GlcNAc
# How it was run: as §1
# [4] = target: Gal3S(b1-4)[Fuc(a1-3)]Glc6S
# How it was run: as §1
# [5] = target: Gal3S(b1-4)[Fuc(a1-3)]GlcNAc
# How it was run: as §1
# [6] = target: Gal3S(b1-4)[Fuc(a1-3)]GlcNAc6S
# How it was run: as §1
# [7] = target: Gal3S4S(b1-4)GlcNAc
# How it was run: as §1
# [8] = target: Gal3S6S(b1-4)GlcNAc
# How it was run: as §1
# [9] = target: Gal3S6S(b1-4)GlcNAc6S
# How it was run: as §1
# [10] = target: Gal4S(b1-4)GlcNAc
# How it was run: as §1
# [11] = target: Gal4S6S(b1-4)GlcNAc
# How it was run: as §1
# [12] = target: Gal6P(b1-4)GlcNAc
# How it was run: as §1
# [13] = target: Gal6S(b1-3)GlcNAc
# How it was run: as §1
# [14] = target: Gal6S(b1-3)GlcNAc6S
# How it was run: as §1
# [15] = target: Gal6S(b1-4)Glc
# How it was run: as §1
# [16] = target: Gal6S(b1-4)Glc6S
# How it was run: as §1
# [17] = target: Gal6S(b1-4)GlcNAc
# How it was run: as §1
# [18] = target: Gal6S(b1-4)GlcNAc6S
# How it was run: as §1
# [19] = target: GalNAc(a1-3)Gal
# How it was run: as §1
# [20] = target: GalNAc(a1-3)GalNAc
# How it was run: as §1
# [21] = target: GalNAc(a1-3)GalNAc(b1-3)Gal(a1-4)Gal(b1-4)Glc
# How it was run: as §1
# [22] = target: GalNAc(a1-3)GalNAc(b1-3)Gal(a1-4)Gal(b1-4)GlcNAc
# How it was run: as §1
# [23] = target: GalNAc(b1-3)Gal
# How it was run: as §1
# [24] = target: GalNAc(b1-3)Gal(a1-4)Gal(b1-4)GlcNAc
# How it was run: as §1
# [25] = target: GalNAc(b1-3)Gal(a1-4)Gal(b1-4)GlcNAc(b1-3)Gal(b1-4)Glc
# How it was run: as §1
# [26] = target: GalNAc(b1-3)Gal(a1-6)Gal(b1-4)Glc
# How it was run: as §1
# [27] = target: GalNAc(b1-3)GalNAc
# How it was run: as §1
# [28] = target: GalNAc(b1-3)GlcNAc
# How it was run: as §1
# [29] = target: GalNAc(b1-4)Gal(b1-4)Glc
# How it was run: as §1
# [30] = target: GalNAc(b1-4)GlcNAc
# How it was run: as §1
# [31] = target: GalNAc(b1-4)GlcNAc(b1-2)Man
# How it was run: as §1
# [32] = target: GalNAc(b1-4)GlcNAc(b1-2)Man(a1-3)[GalNAc(b1-4)GlcNAc(b1-2)Man(a1-6)]Man(b1-4)GlcNAc(b1-4)GlcNAc
# How it was run: as §1
# [33] = target: GalNAc(b1-4)GlcNAc(b1-3)GalNAc(b1-4)GlcNAc
# How it was run: as §1
# [34] = target: GalNAc(b1-4)GlcNAc6S
# How it was run: as §1
# [35] = target: GalNAc(b1-6)GalNAc
# How it was run: as §1
# [36] = target: GalNAc3S(b1-4)GlcNAc
# How it was run: as §1
# [37] = target: GalNAc3S(b1-4)GlcNAc3S
# How it was run: as §1
# [38] = target: GalNAc3S(b1-4)[Fuc(a1-3)]GlcNAc
# How it was run: as §1
# [39] = target: GalNAc4S6S(b1-4)GlcNAc
# How it was run: as §1
# [40] = target: GalNAc6S(b1-4)GlcNAc
# How it was run: as §1
# [41] = target: Glc(a1-4)Glc
# How it was run: as §1
# [42] = target: Glc(a1-4)Glc(a1-4)Glc(a1-4)Glc
# How it was run: as §1
# [43] = target: Glc(a1-6)Glc(a1-6)Glc
# How it was run: as §1
# [44] = target: Glc(a1-6)Glc(a1-6)Glc(a1-6)Glc
# How it was run: as §1
# [45] = target: Glc(b1-4)Glc
# How it was run: as §1
binder,measurement,setting,value
B1,glycan array binding signal (z-score),[1],-0.042
same,glycan array binding signal (z-score),[2],-0.118
same,glycan array binding signal (z-score),[3],-0.291
same,glycan array binding signal (z-score),[4],-0.292
same,glycan array binding signal (z-score),[5],-0.188
same,glycan array binding signal (z-score),[6],-0.231
same,glycan array binding signal (z-score),[7],-0.153
same,glycan array binding signal (z-score),[8],-0.273
same,glycan array binding signal (z-score),[9],0.037
same,glycan array binding signal (z-score),[10],-0.435
same,glycan array binding signal (z-score),[11],-0.401
same,glycan array binding signal (z-score),[12],-0.305
same,glycan array binding signal (z-score),[13],-0.271
same,glycan array binding signal (z-score),[14],-0.209
same,glycan array binding signal (z-score),[15],-0.274
same,glycan array binding signal (z-score),[16],-0.245
same,glycan array binding signal (z-score),[17],-0.363
same,glycan array binding signal (z-score),[18],-0.275
same,glycan array binding signal (z-score),[19],-0.427
same,glycan array binding signal (z-score),[20],-0.37
same,glycan array binding signal (z-score),[21],-0.237
same,glycan array binding signal (z-score),[22],-0.064
same,glycan array binding signal (z-score),[23],-0.292
same,glycan array binding signal (z-score),[24],-0.246
same,glycan array binding signal (z-score),[25],-0.343
same,glycan array binding signal (z-score),[26],-0.363
same,glycan array binding signal (z-score),[27],-0.42
same,glycan array binding signal (z-score),[28],-0.368
same,glycan array binding signal (z-score),[29],-0.112
same,glycan array binding signal (z-score),[30],0.162
same,glycan array binding signal (z-score),[31],-0.257
same,glycan array binding signal (z-score),[32],2.2
same,glycan array binding signal (z-score),[33],0.074
same,glycan array binding signal (z-score),[34],-0.343
same,glycan array binding signal (z-score),[35],-0.432
same,glycan array binding signal (z-score),[36],-0.379
same,glycan array binding signal (z-score),[37],-0.407
same,glycan array binding signal (z-score),[38],-0.393
same,glycan array binding signal (z-score),[39],-0.328
same,glycan array binding signal (z-score),[40],-0.324
same,glycan array binding signal (z-score),[41],-0.216
same,glycan array binding signal (z-score),[42],-0.286
same,glycan array binding signal (z-score),[43],-0.21
same,glycan array binding signal (z-score),[44],-0.066
same,glycan array binding signal (z-score),[45],-0.246
